# Experimental data as given in the supplement of paper PMC10126150.
# Sequences with one replicate were seen in a single cluster, so their values are uncertain.
# Test system: ATP
# Test: switch fluorescence ratio, 500 uM ATP over buffer (Cy3 cluster intensity, sum of 5 cycles each) (fold (ratio)); higher = stronger signal-on switching upon ATP binding; sequences stand for … in TCGTCGGCAGCGTCAGATGTGTATAAGAGACAGTTTTTTTTTTTTTTTTTTTTTTTTT…TC
# Conditions: aptamer strand: ATP DNA aptamer (quencher-CACCTGGGGGAGTATTGCGGAGGAAGG + anchor), 100 nM annealed; ATP concentration: 500 uM; one replicate
# Outline: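 For every switch-domain sequence, the fluorescence ratio is the mean of per-cluster values, each being summed target-cycle Cy3 intensity over summed buffer-cycle Cy3 intensity. Clusters outside 100-1000 RFU were excluded. On a modified Illumina MiSeq flow-cell, the Cy3-labelled switching-strand clusters were annealed to 100 nM quencher-labelled ATP aptamer, imaged in selection buffer and then after 15 min with 500 uM ATP at 22 °C. Five such cycles were run, with NaOH stripping and re-annealing between them.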
# 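Note: ATP exposure 15 min at 22 °C before imaging.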
row,Sequence,switch fluorescence ratio
1,TGGGGAGACT,1.03
2,ACTCTCATCG,1.06
3,TTTTAAAGAA,0.958
4,TGATTATGCT,0.95
5,TCTACGGGCC,1.04
6,ACCACTAGCG,1.07
7,CGAAGCCGTG,0.978
8,CGGCGTTTT,0.998
9,ATTCATTT,0.985
10,CATTATGGTC,1.06
11,ATGTTGGAAA,0.984
12,AATTACGTCT,0.984
13,CCTGTCTTGC,1.03
14,TAAAATTTTG,1.04
15,TAGCTCGCCA,0.999
16,CTCTAACTGA,1.02
17,TAGGTGATT,1.06
18,GAGTGATCGA,1.06
19,TAATGGGTCG,1.01
20,GAATTGCCTG,1.06
21,TAACACGGGT,0.978
22,TAGGACGATC,1.02
23,GCTTGAGTCT,0.969
24,GCTGGGAGCT,1.02
25,AAATCAGGGT,0.988

row,Sequence,switch fluorescence ratio
1,GCCTCAGTTC,0.92
2,TATGATATG,0.987
3,CATCCTAATT,1.02
4,GTCTGAATA,0.981
5,CAGTTCCTCA,1.06
6,ACGGGAGGAG,0.995
7,GACATCATTA,1.02
8,CAGGGAAC,0.984
9,CAAGGTTATT,1.06
10,GGGTGATGTT,1.08
11,AAACCAAATG,1.02
12,GTGGCGCCCT,1.18
13,ATTGGAGAGG,1.03
14,TATTGGCGTG,0.96
15,GTCAATTTGG,1.05
16,TTCACGTGGG,0.996
17,GTAGGTTTCC,0.981
18,GTAATAGGTG,1.01
19,GATAAGTACC,1.44
20,GGACAGGTTC,0.97
21,CAGGTCGCGA,0.994
22,CGCGGGCTGA,1.01
23,GTGCCCGTAT,0.993
24,GGACCCTTGG,1.01
25,TCTAAGTAAG,1.06

row,Sequence,switch fluorescence ratio
1,AGGGTCCGGT,0.972
2,GAGTCGCGCC,0.949
3,TAAGCTAGCT,0.98
4,GTTCCTAGAG,1.03
5,GCATAAGGT,1
6,GATTGCATTC,1.14
7,CGAATTATGC,1.1
8,TAAATCCGAA,1
9,TGCTCAAGCT,1.01
10,GAGGCCCCTG,1.02
11,CCAACTGGCT,1.02
12,ACAAGAGAGT,1
13,ATGGGATGTT,0.988
14,CATGTATCTC,0.999
15,CGATCGACAT,1.03
16,TACCTCCGTC,2.06
17,TCCGATTATA,1.04
18,GAGCTTCAGT,1.02
19,TGCCGCAGGC,0.972
20,TGCCGGCGCG,1.05
21,CGGGGTGGCC,0.949
22,GGTGATAACG,0.959
23,ACGGCCGGGT,1.07
24,CAAGGTCATT,1.01
25,TCTTGAGATG,1.01

row,Sequence,switch fluorescence ratio
1,CGGCAAAGCG,0.998
2,GTCGCAGGGC,1.44
3,AGTGGGGTAG,0.973
4,TATGTCTGGG,0.93
5,TGCATACTAT,1.09
6,CGATAGTACG,0.989
7,TTTAGGTTC,0.97
8,CCTCCCCGG,3.62
9,GGGACAGGAG,1.04
10,TGTGCGAAG,0.997
11,CTACTCTTTC,1.15
12,TAAGTTATGA,1.05
13,CGGCGGAATG,1.08
14,TGATATTGCC,1.09
15,AGTATAGGAA,0.982
16,GCATGCCGAT,0.976
17,TAAGCACGGT,1.07
18,CCATGCGAGA,1.16
19,GCTTGCTTAT,1.01
20,GTTTATCGTT,0.954
21,CAAATCGGTG,1
22,GTTAAAGGCG,1.04
23,AATATCCTCG,1.02
24,TTACGGTCGC,0.992
25,ATGGGTGACA,1.04

row,Sequence,switch fluorescence ratio
1,TAGTGAACAG,1.02
2,AAGCGAACGA,1.05
3,TTCGTGTGGA,1.03
4,CCGGAAGGGA,1.76
5,TTGTAATTAT,0.96
6,GCTTTCCGCG,1.11
7,ACGTATACGA,1.1
8,GTGCAATTGA,1.08
9,TAATGGGCTC,0.993
10,AGATCGGTCA,1
11,GTAATAAGTG,0.999
12,TTTTCCATAG,1
13,CTAATTGCGT,1.02
14,TGGTCTTTAA,1.05
15,AAGGGCCTGA,1.01
16,GCTGCTGTCC,1.04
17,GAACTTGGAG,1.03
18,GCGACGTGCC,1.05
19,TCAGTACCGA,0.997
20,ACCGCAGGGT,0.99
21,GCTTAATTGC,1.05
22,GTCGGGAGTT,1.01
23,TTACGGTATT,1.19
24,CGTATGATCC,1.03
25,AGTGTTCAGC,1.02

row,Sequence,switch fluorescence ratio
1,GAATGACTTT,0.984
2,TAAGAGTGTG,0.983
3,GAGGTCGGAA,1
4,CATTGCGTCC,1.04
5,TTACAATAAT,1
6,ATAAATATTT,0.957
7,CTATTTTCGC,1.01
8,GGACGAACAA,1.13
9,TGGTATCAT,0.973
10,ATTCTGATTA,0.956
11,GCGTTGGTTG,1.03
12,TGCACTTTCG,1.04
13,TAACTGTTTC,1.02
14,CGTATTCGAA,0.99
15,ACTCGCCGTC,0.975
16,GAATAAAGCG,1.02
17,AATAAGGAGG,0.998
18,CCAGGTTCTT,1.31
19,CTTGGGGCAA,1.46
20,TGCTATTGCA,1.06
21,CCTGTTTCCA,0.998
22,TCTCGATCCA,1.05
23,TCAAGACTAT,1
24,TGTATTATTT,1.02
25,ATTCAAGTTC,0.998

row,Sequence,switch fluorescence ratio
1,ATGTTTCGGG,0.945
2,GGAGGTAGAG,0.937
3,ATGGACGCGG,1.01
4,TATCTTCGC,1.06
5,GGCCCTACGT,1.03
6,GGTGTAGGTA,1.03
7,GATGAAACG,1.04
8,AGTTCAGCTT,0.998
9,TAGCCCGGGC,0.973
10,TAGTATGGCC,0.957
11,AAGCCATGTT,1.02
12,ATCATCGTTA,0.971
13,CCTGCTTCAA,1.54
14,TAAATGAGGC,1
15,CCAGAAAGTC,1.04
16,ACGGTTGCCT,0.992
17,TGTTATAACG,0.974
18,ACACTGTTTT,1
19,ATGTATTGG,1.03
20,GGAGGTTAGC,1
21,ATGCGTACGG,1.07
22,TAACGTAATG,1.22
23,AGTGTACCCC,1.22
24,TTAAGGTAT,0.996
25,TCGCTAGGCT,1.17

row,Sequence,switch fluorescence ratio
1,AGATACGAAG,0.962
2,AACATGTTGC,0.996
3,TAAATGAAAC,1.11
4,CTTTAAGAAC,0.988
5,TTGAAAAGTC,1.05
6,AGGATAGAAA,1.02
7,ACGATGGCGG,1.03
8,GGAGTCGCCC,0.991
9,CGGAATATAG,1
10,GATGACTACC,1.17
11,ATGCACGCTC,1.02
12,TGCATATAAA,1.2
13,GCTATGCGCT,0.979
14,CCGGGCCTTT,0.991
15,ACAAGTCGGA,1.03
16,AGTCTACACT,1.05
17,AGTTATGGAT,0.99
18,CTTGAATAGC,1
19,AGAAAGCTCG,1.04
20,GCTTTAACCG,1.02
21,TTATGCTAGG,0.956
22,TACGCCGACG,1.14
23,AAAGCTTAG,1.02
24,GTCGCCGGCT,0.965
25,AATTACGGGA,1.01
